Test results as given in the supplement of paper PMC11417369.
Some of the results follow.

tested on: PfSIP2 AP2 domain 1 (GST-tagged); assay: gcPBM binding intensity (ln(normalized median fluorescence intensity)); higher = stronger DNA binding
Procedure, shortened: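 After 1 h on an Agilent 4 × 180k array of primer-extended double-stranded 36-bp intergenic genomic probes and negative controls, bound GST-tagged P. falciparum DNA-binding domains were detected with Alexa488 anti-GST antibody and scanned at 488 nm. The domains had been expressed in E. coli, and binding took place in 1× PBS with 1% milk, 0.2 mg/ml BSA, 0.5% salmon testes DNA and 0.03% Triton X-100. Binding intensity is the highest Masliner-normalised natural-log median intensity across replicate spots of either probe orientation.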

Sequence	gcPBM binding intensity (ln)
TTGTTTTTAGTTTATACACACCATATTAATATAATG [CACACA_site7452]	7.31
ATTTGGCATGGACACACACACACACCGACAGACATA [CACACA_site4491]	7.16
TTATATTATGGACACACACACAAAAAAAAAAAAAAA [CACACA_site7744]	7.14
AAATTAATTAAATATACACACATATATAAATATATA [CACACA_site391]	6.85
ATATATATATAAAGTTGTACATTTTTTATTTTTTCA [XGTACX_site7847]	9.04
TTAAAACCAAAACACAGTACATATATATATATATAT [XGTACX_site5668]	9.66
CAATTTTAAGTAATCAATTTTTTTAAAAAACACAAA [CACACA_negctrl_site961]	7.03
AAAATATATTATATATGTACATATTACGTTTTAATT [XGTACX_site2518]	7.04
TATATATATATGTATACACACATATGTATGTTATGT [CACACA_site4053]	9
GCATAATATACTCTTACACACCATTTCTATATACAT [CACACA_site6799]	7.22
TTTGTTAATTATAAATGTACATATTATATATATATA [XGTACX_site8870]	9.08
ATGTTGTCAAAAAAATGTACTTACATAATATTTTCC [XGTACX_site1732]	7
TATAAATACTTATATGTACACACATATAGATATATA [CACACA_site8819]	7
CGCATACACCAACACACACACACATATATATATATA [CACACA_site635]	9.74
AGAAGTCTGTAATGATGTACTGGAAAAATATAAATA [XGTACX_site8148]	6.96
TAGATCTTATTTACAAGTACATATATACGATTCATT [XGTACX_site7578]	6.97
ATCTAATATATATTCTGTACGTAATTAAAACCACAA [XGTACX_site3152]	7.54
TTTTTTTTTTAAAAAACACACACCTAAACAAGATAT [CACACA_site875]	7.42
ATATATATATATATTTGTACATATATATAATTTTTC [XGTACX_site7460]	9.37

Sequence	gcPBM binding intensity (ln)
TATAATTGTCTTCACACACACATATATATATATATA [CACACA_site2743]	9.32
AAAATAAAAAAAAAAGGTACACAAAAAGATGGACTG [XGTACX_site2650]	6.82
AAAAAACGACCTTACGCACACATTATTCTAGTCTAT [CACACA_site2349]	7
TCAAATTATATGAGTGGTACACATGTAATATTTTTA [XGTACX_site6518]	6.76
AAAAAAATATATATTACACACATATATACATATATA [CACACA_site3125]	7
ATATTTTGTATAATCACACACACTATTATTAAATAG [CACACA_site2612]	7.09
TTACATTTTTTATGTTTTTTTATATTGCAAAAAAAT [CACACA_negctrl_site1050]	6.93
ATATATATATATATATGTACTTATTAAGATTAAAAA [XGTACX_site61]	9.21
TTAAATATAAAAAGTAGTACATTTATATTTACCATA [XGTACX_site2962]	6.94
AAAAAAAAAAAAAAAACACACATACACCCCCACCCA [CACACA_site9117]	9.07
TATAAATATAAATACACACACACATCAATACAGATA [CACACA_site5850]	6.97
ATTAATAATATTCCTTGTACATGATTTTTCTAAATA [XGTACX_site7099]	6.78
TGTGTTAATAGAAAAAGTACATATACATATATATAT [XGTACX_site4951]	8.74
TGCACAGACGGACACACACACAACTAAAAAATAATG [CACACA_site5424]	7.44
TATAATAATGCCTTTACATGCAATAATAAAGAAATA [TGCATGCA_site631]	7
AATGAATTAATAGCTACACACGGTAACATAATAACT [CACACA_site851]	6.94
TCTTTTGAACAAATTTGTACGTATATAAAAATATTT [XGTACX_site6547]	7.14
ATATTTCATCTAGCTACACACATATAACAAATTACT [CACACA_site7843]	7.28
TACATAAAAATATCACGTACATATAATCATATACTA [XGTACX_site3505]	7.08

Sequence	gcPBM binding intensity (ln)
ACCTTTGATATATACACACACATAAAAAAAATATAT [CACACA_site6952]	7.74
TTCTTTTTCCAATTTGCACACCACAAAATTATATAT [CACACA_site2909]	8.22
ATAATTAATGATGTATGTACGGAATTTATATATTTG [XGTACX_site5685]	6.92
ATAGTAATAGAATGATTGCACTTAAATTTTCCCTCT	7.33
GTATACATATTTATAATAATAAATGTCTTATATTTT [CACACA_negctrl_site688]	6.88
TAATATATTAATATATGTACGTATTTTTATTAATAT [XGTACX_site5346]	7.32
TTAAATAATTCTTTTAGTACACACGAATAAGCAGAT [XGTACX_site623]	7.37
TATCTTATATATAAGTGTACGCAGATTCTTACGATA [XGTACX_site6058]	7.8
ATATATATATATATATGTACATATGTCAACTGTCTA [XGTACX_site8636]	9.49
CATACATACAAACACACACACATATATATACATACA [CACACA_site852]	7.45
ATATATCAAATAGACAAACACACAAAGGAAGAGTGA [CACACA_site3922]	7.02
TATGTATTAATGAGAACATGCAAAATAATAAACAAT [TGCATGCA_site362]	7.24
CACAGACACGGACACACACACACACCCAGACACATA [CACACA_site4357]	7.18
CATATACACGAACACACACACACACGCACAAAAAAA [CACACA_site6376]	7.69
AATAATATATGGACATGTACATAATATATATTTTTT [XGTACX_site312]	7.02
TTCATATAATTCATCTGTACATATTGATAGTATGCA [XGTACX_site6386]	6.88
TGTTTTATTTATTAAGCACACGCGATTTAAAAAATA [CACACA_site981]	6.79
TCAAATGTGTAATCTTGTACACATTAAAAGAAAAAA [XGTACX_site8822]	6.92
TTTGTTCTTTTTGAAGTGCACTGAAATATAACAAAA	10.7
